# Source: the supplement of paper PMC5919970
# Structures can show the parent of a compound that is named as a salt. Over roughly 2,000 compounds, “fractional viability relative to vehicle” has its median near 0.92; the lowest 2% begin near 0.11. The list shows a part of the results.
# System: TYKNU
# Test: fractional viability relative to vehicle; TYKNU is a high-grade serous ovarian cancer line; higher = less growth inhibition
# Conditions: 72 h, genotype: OPA1 knockout (sgOPA1 #2)
# How it was run: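 TYKNU control cells or lentiCRISPRv2 knockout derivatives were seeded at 500 cells per well into drug-stamped 384-well plates holding a ~2100-compound library at 2 or 10 μM, in duplicate. Cells were grown at 37 °C in 5% CO2 in RPMI 1640 with 10% FBS, and drug treatment lasted 72 h. Viability was read by Cell Titer Glo luminescence. Duplicate treatment wells were averaged and normalised to duplicate control wells from the same plate position.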
SMILES,fractional viability (2uM),fractional viability (10uM)
O=c1cc[nH]c(=O)[nH]1 [Uracil],0.887,0.853
Cc1ccc(C(=O)Nc2cccc(C(F)(F)F)c2)cc1Nc1nc(-c2cccnc2)nc2c1cnn2C,1.07,0.407
CCOC(=O)N1c2ccc(C(F)(F)F)cc2[C@@H](N(Cc2cc(C(F)(F)F)cc(C(F)(F)F)c2)C(=O)OC)C[C@H]1CC [Torcetrapib],1.01,0.857
COc1ccc(-c2cc(=O)c3c(OC)c(OC)c(OC)c(OC)c3o2)cc1OC [Nobiletin],0.968,1.18
C[C@H]1C[C@H]2[C@@H]3CCC4=CC(=O)C=C[C@]4(C)[C@H]3C(=O)C[C@]2(C)[C@@]1(O)C(=O)CO [Meprednisone],1.12,0.951
Cc1ccc(S(=O)(=O)OCC(=O)Nc2ccc(C(=O)O)c(O)c2)cc1,1.19,1.02
O=C(O)CCCN1CCC(O[C@@H](c2ccc(Cl)cc2)c2ccccn2)CC1 [Bepotastine Besilate],1.14,0.923
NNC(=O)c1ccncc1 [Isoniazid],1.01,1.08
CC1(C)C=C(CN2C/C(=C\c3ccc(F)cc3)C(=O)/C(=C/c3ccc(F)cc3)C2)C(C)(C)N1O,0.837,0.79
COc1ccc(-c2ccc3cc(C(=O)O)ccc3c2)cc1C12CC3CC(CC(C3)C1)C2 [Adapalene],0.896,0.583
COc1cc2c(NC3CCN(CC4CCCCC4)CC3)nc(N3CCCN(C(C)C)CC3)nc2cc1OCCCN1CCCCC1,0.786,0.0322
O=C(O)c1cccnc1 [Nicotinic Acid],1.15,1.03
CCCCc1oc2ccccc2c1C(=O)c1cc(I)c(OCCN(CC)CC)c(I)c1 [Amiodarone HCl],0.994,0.867
O=c1[nH]c(=O)n([C@H]2C[C@H](O)[C@@H](CO)O2)cc1I [Idoxuridine],0.874,0.935
"CN1CCN(c2ccc3nc(-c4c(N)c5c(F)cccc5[nH]c4=O)[nH]c3c2)CC1 [Dovitinib (TKI-258, CHIR-258)]",0.815,0.25
CN1CCN(c2ccc3nc(-c4c(N)c5c(F)cccc5[nH]c4=O)[nH]c3c2)CC1 [Dovitinib (TKI258) Lactate],0.815,0.0801
C=CCNC1=C2C[C@@H](C)C[C@H](OC)[C@H](O)[C@@H](C)/C=C(\C)[C@H](OC(N)=O)[C@@H](OC)/C=C\C=C(/C)C(=O)NC(=CC1=O)C2=O [17-AAG (Tanespimycin)],0.652,0.468
Cc1cccc(N(C)C(=S)Oc2ccc3ccccc3c2)c1 [Tolnaftate],1.06,1.12
CCS(=O)(=O)c1cccc(-c2cc(C(=O)NC3CCN(C)CC3)c(C)c3[nH]c4ncc(C)cc4c23)c1,0.598,0.127
COC(=O)[C@H](Cc1ccccc1)NC(=O)[C@@H](N)CC(=O)O [Aspartame],1.06,0.956
CNC(=O)[C@@H](NC(=O)[C@H](CC(C)C)[C@H](O)C(=O)NO)C(C)(C)C [Marimastat(BB-2516)],0.952,0.73
C[C@]12CC[C@@H]3c4ccc(O)cc4C[C@@H](CCCCCCCCC[S+]([O-])CCCC(F)(F)C(F)(F)F)[C@H]3[C@@H]1CC[C@@H]2O (stereo partly drawn) [Fulvestrant],1.2,0.949
Clc1ccc(C2(c3ccc(-c4cn[nH]c4)cc3)CCNCC2)cc1,1.03,0.554

SMILES,fractional viability (2uM),fractional viability (10uM)
C=C[C@](C)(O)CC[C@@H]1[C@@]2(C)CCCC(C)(C)[C@@H]2CC[C@@]1(C)O [Sclareol],1.05,0.892
Clc1ccc2nsnc2c1NC1=NCCN1 [Tizanidine HCl],1.22,1.01
"Cc1cc(Nc2cc(N3CCN(C)CC3)nc(Sc3ccc(NC(=O)C4CC4)cc3)n2)n[nH]1 [VX-680 (Tozasertib, MK-0457)]",0.817,0.88
CC(C)Oc1ccc2c(=O)c(-c3ccccc3)coc2c1 [Ipriflavone (Osteofix)],0.805,0.958
Nc1nc(OCc2cc(Br)cs2)c2[nH]cnc2n1 [Lomeguatrib],0.688,0.314
CCCCOc1ccc(C(=O)Nc2ccc(F)cc2F)cc1,0.933,0.902
NC1(Cc2ccc(Cl)cc2)CCN(c2ncnc3[nH]ccc23)CC1,1.21,0.517
N[C@H]1CC[C@H](N[C@@H]2C[C@H]2c2ccccc2)CC1,0.794,0.89
Cc1cc(C(C)Nc2ccccc2)c2nc(N3CCOCC3)cc(=O)n2c1 (stereo not drawn),1.06,1.02
CCOC(=O)C1=C(N)Oc2ccc(Br)cc2C1C(C#N)C(=O)OCC (stereo not drawn),1.13,0.72
N#C/C(=C1/SC[C@@H](c2ccc(Cl)cc2Cl)S1)n1ccnc1 [Luliconazole],0.989,0.818
O=[N+]([O-])c1ccc(Nc2nc(N3CCOCC3)nc(N3CCOCC3)n2)cc1,0.893,0.934
CCCCOc1cc(C(=O)OCCN(CC)CC)ccc1N [Oxybuprocaine HCl],1.02,0.765
O=C1O[C@H]([C@@H](O)CO)C([O-])=C1O.[Na+] [Sodium ascorbate],1.02,0.95
CC(C=CC1(O)C(C)=CC(=O)CC1(C)C)=CC(=O)O (stereo not drawn) [Abscisic Acid (Dormin_],0.754,0.809
CCN(CC)CCNC(=O)c1ccc(N)cc1 [Procainamide HCl],1.06,0.849
NC[C@H](O)c1ccc(O)c(O)c1 [Noradrenaline bitartrate monohydrate],0.863,0.65
CCc1cc2c(cc1CC)CC(NC[C@H](O)c1ccc(O)c3[nH]c(=O)ccc13)C2 [Indacaterol Maleate],0.868,0.721
C=C[C@]1(C)C[C@@H](OC(=O)CSC(C)(C)CNC(=O)[C@H](N)C(C)C)[C@]2(C)[C@H](C)CC[C@]3(CCC(=O)[C@H]32)[C@@H](C)[C@@H]1O [Valnemulin HCl],1.01,0.941
Cc1c(-c2ccc(O)cc2)n(Cc2ccc(OCCN3CCCCCC3)cc2)c2ccc(O)cc12 [Bazedoxifene HCl],1.02,0.329
Cc1c(-c2ccc(O)cc2)n(Cc2ccc(OCCN3CCCCCC3)cc2)c2ccc(O)cc12 [Bazedoxifene Acetate],0.812,0.176
O=C(O)c1cccc(-c2noc(-c3ccccc3F)n2)c1 [Ataluren (PTC124)],0.901,0.531
Nc1ccc(S(=O)(=O)Nc2nccs2)cc1 [Sulfathiazole],1.07,0.871

SMILES,fractional viability (2uM),fractional viability (10uM)
Cc1ccc(-c2cc(C(F)(F)F)nn2-c2ccc(S(N)(=O)=O)cc2)cc1 [Celecoxib],0.935,0.971
CC(C)[N+]1(C)[C@@H]2CC[C@H]1C[C@@H](OC(=O)C(CO)c1ccccc1)C2 (stereo partly drawn) [Ipratropium Bromide],1.2,0.954
CC[C@H]1OC(=O)[C@H](C)[C@@H](O[C@H]2C[C@@](C)(OC)[C@@H](O)[C@H](C)O2)[C@H](C)[C@@H](O[C@@H]2O[C@H](C)C[C@H](N(C)C)[C@H]2O)[C@](C)(O)C[C@@H](C)CN(C)[C@H](C)[C@@H](O)[C@]1(C)O [Azithromycin],1.01,1.2
OCCn1cc(-c2ccc3c(c2)CC/C3=N\O)c(-c2ccncc2)n1,1.14,0.942
CN1CCc2nc(C(=O)N[C@@H]3C[C@@H](C(=O)N(C)C)CC[C@@H]3NC(=O)C(=O)Nc3ccc(Cl)cn3)sc2C1 [Edoxaban],1.05,0.951
CN[C@H]1CC[C@@H](c2ccc(Cl)c(Cl)c2)c2ccccc21 [Sertraline HCl],0.99,0.613
O=C(/C=C/c1cccc(S(=O)(=O)Nc2ccccc2)c1)NO [Belinostat (PXD101)],0.484,0.219
CC(C)(C)c1cc(NC(=O)Nc2ccc(-c3cn4c(n3)sc3cc(OCCN5CCOCC5)ccc34)cc2)no1 [Quizartinib (AC220)],0.85,0.746
CNC(=O)c1ccc(N2C(=S)N(c3ccc(C#N)c(C(F)(F)F)c3)C(=O)C2(C)C)cc1F [Enzalutamide (MDV3100)],1.01,0.785
CCCc1ccc(OCC(=O)N(Cc2nc(-c3cccnc3)no2)C(C)C)cc1,0.791,0.721
COc1cc(OC)c(NC(=O)Nc2cc(C)on2)cc1Cl,1.02,1.1
COc1cc2nc(N3CCN(C(=O)C4COc5ccccc5O4)CC3)nc(N)c2cc1OC (stereo not drawn) [Doxazosin Mesylate],1.1,1.22
N#C/C(=C(/N)Sc1ccc(N)cc1)c1ccccc1C(F)(F)F,1.02,0.887
NC[C@@](O)(c1ccc(Cl)cc1)c1ccc(-c2cn[nH]c2)cc1,0.858,0.87
O=c1c(O)c(-c2ccc(O)cc2)oc2cc(O)cc(O)c12 [Kaempferol],0.953,1.09
CCN(CC)C(=O)C1(c2ccccc2)CC1CN (stereo not drawn) [Milnacipran HCl],1.09,0.898
Cc1cc(C(C)(C)C)cc(C)c1CC1=NCCN1 [Xylometazoline HCl],1.03,0.893
COc1cc(NC(=O)c2ccccn2)ccc1Cl,0.917,0.999
c1ccc(Cn2c(-c3ccc(OC[C@H](C4CCNCC4)n4c(-c5ccccc5)nc5ccccc54)cc3)nc3ccccc32)cc1 [Deltarasin],1.14,0.0644
CC#CCn1c(N2CCC[C@@H](N)C2)nc2c1c(=O)n(Cc1nc(C)c3ccccc3n1)c(=O)n2C [Linagliptin],0.874,0.907
CCN(CC)CCOCCOC(=O)C1(c2ccccc2)CCCC1 [Pentoxyverine Citrate],0.934,0.831
COc1ccc(Cl)cc1C(=O)NCCc1ccc(S(=O)(=O)NC(=O)NC2CCCCC2)cc1 [Glyburide],0.986,0.837
Nc1nc(=O)n([C@@H]2CS[C@H](CO)O2)cc1F [Emtricitabine],0.979,0.839
